{"source": "patent US20200317802A1", "about": "(Merck KGaA, published 2020)", "key": {"[1]": {"target": "T1, recombinant human ADAMTS5 (R&D Systems cat #2198-AD) (human, UniProt Q9UNA0 262-622, limits assumed)", "T1 sequence": "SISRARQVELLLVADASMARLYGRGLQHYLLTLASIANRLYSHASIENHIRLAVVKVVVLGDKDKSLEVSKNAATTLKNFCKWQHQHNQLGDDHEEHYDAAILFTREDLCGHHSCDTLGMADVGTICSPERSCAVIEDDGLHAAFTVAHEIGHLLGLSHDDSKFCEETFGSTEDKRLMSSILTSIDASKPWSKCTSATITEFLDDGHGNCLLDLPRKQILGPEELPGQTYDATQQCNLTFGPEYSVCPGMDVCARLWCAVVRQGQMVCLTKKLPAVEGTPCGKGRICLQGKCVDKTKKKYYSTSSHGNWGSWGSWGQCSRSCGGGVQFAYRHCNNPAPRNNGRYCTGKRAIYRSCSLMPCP", "test": "cell-based or functional assay"}, "[2]": {"target": "T1, recombinant human ADAMTS5 (R&D Systems …)", "test": "cell-based or functional assay", "remark": "listed apart in the source"}, "[3]": {"target": "T1, recombinant human ADAMTS5 (R&D Systems …)", "test": "KinExA, in solution, with HSA", "method": "(§1) The affinity of the formatted Nanobody construct 069 (049-35GS-ALB11) and Nanobody construct 130 (049-35GS-093-ALB11)(see also Table 6.5) were determined in solution with a kinetic exclusion assay on a KinExA3000 instrument (Sapidyne, Boise, USA). To this end, human ADAMTS5 was coupled to PMMA beads according to the manufacturer's instructions, described in detail by Darling and Brault (2004 Assay Drug Dev Technol. 2:647-57). A fixed concentration of Nanobody construct (50 pM Nanobody construct 069 or 5 pM Nanobody construct 130) was added to a dilution series of human ADAMTS5 ranging from 2 nM-0.2 pM and incubated at room temperature for 16 hours till equilibrium was reached. Subsequently, mixtures were injected via KinExA's autosampler over a column packed with human ADAMTS5-conjugated PMMA beads to capture free Nanobody construct on the beads and detect with Alexa647-labeled HSA. Percent free Nanobody construct was plotted as a function of titrated human ADAMTS5 and fitted using the KinExA Pro Software v3.2.6.\n(§2) Mixtures were incubated and allowed to reach equilibrium for 24 hours prior to injection via KinExA's autosampler over a column packed with human ADAMTS5-conjugated PMMA beads."}, "human serum albumin": {"target": "T2, human serum albumin (human, UniProt P02768)", "T2 construct": "also called HSA; human SA", "test": "SPR, serum albumin immobilised"}, "[4]": {"target": "T3, cynomolgus monkey serum albumin (cynomolgus monkey, UniProt A2V9Z4 25-608)", "T3 construct": "also called cyno SA", "T3 sequence (A2V9Z4 25-608 limits assumed)": "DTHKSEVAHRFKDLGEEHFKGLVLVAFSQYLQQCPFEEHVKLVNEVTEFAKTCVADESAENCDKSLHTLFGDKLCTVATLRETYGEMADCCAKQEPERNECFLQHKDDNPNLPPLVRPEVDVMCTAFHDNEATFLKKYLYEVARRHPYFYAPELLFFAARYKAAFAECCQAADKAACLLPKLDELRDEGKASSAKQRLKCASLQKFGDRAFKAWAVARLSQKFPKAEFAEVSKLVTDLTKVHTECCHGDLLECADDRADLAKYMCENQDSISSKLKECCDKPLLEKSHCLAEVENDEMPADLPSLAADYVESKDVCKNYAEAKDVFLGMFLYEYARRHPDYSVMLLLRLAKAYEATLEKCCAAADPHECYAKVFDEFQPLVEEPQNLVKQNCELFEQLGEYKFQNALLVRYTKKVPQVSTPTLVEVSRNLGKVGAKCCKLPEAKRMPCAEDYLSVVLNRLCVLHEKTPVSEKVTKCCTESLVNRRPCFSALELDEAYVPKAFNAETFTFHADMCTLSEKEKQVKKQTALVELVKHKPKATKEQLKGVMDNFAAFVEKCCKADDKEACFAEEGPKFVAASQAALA", "test": "SPR, serum albumin immobilised"}, "guinea pig serum albumin": {"target": "T4, guinea pig serum albumin (guinea pig)", "T4 construct": "also called guinea Pig SA", "test": "SPR, serum albumin immobilised"}, "mouse serum albumin": {"target": "T5, mouse serum albumin (mouse, UniProt P07724 25-608)", "T5 construct": "also called mouse SA", "test": "SPR, serum albumin immobilised"}, "rat serum albumin": {"target": "T6, rat serum albumin (rat, UniProt P02770 25-608)", "T6 construct": "also called rat SA", "test": "SPR, serum albumin immobilised"}, "[5]": {"target": "T1, recombinant human ADAMTS5 (R&D Systems …)", "test": "KinExA, in solution, without HSA", "method": "as §1, §2"}, "[6]": {"target": "T7, cynomolgus monkey recombinant ADAMTS5 (cynomolgus monkey, UniProt Q9UNA0 262-622 (human entry), limits assumed)", "T7 construct": "in house, HEK293, His tag in the entry; also called cyno ADAMTS5", "T7 chain": "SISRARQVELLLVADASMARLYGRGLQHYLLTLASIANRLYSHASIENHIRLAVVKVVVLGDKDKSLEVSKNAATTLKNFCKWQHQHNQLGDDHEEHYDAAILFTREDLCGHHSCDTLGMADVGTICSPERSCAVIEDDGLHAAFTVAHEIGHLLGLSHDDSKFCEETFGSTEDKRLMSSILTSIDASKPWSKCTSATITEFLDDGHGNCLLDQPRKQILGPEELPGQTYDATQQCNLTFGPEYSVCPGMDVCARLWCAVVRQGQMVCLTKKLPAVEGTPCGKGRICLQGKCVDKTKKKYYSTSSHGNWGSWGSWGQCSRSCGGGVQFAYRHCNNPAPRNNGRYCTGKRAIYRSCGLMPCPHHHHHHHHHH", "test": "KinExA, in solution; free 581 captured on human ADAMTS5 beads", "method": "as §2"}, "[7]": {"target": "T8, mouse recombinant ADAMTS5 (mouse, UniProt Q9R001 262-622, limits assumed)", "T8 construct": "in house, HEK293, His tag in the entry", "T8 sequence": "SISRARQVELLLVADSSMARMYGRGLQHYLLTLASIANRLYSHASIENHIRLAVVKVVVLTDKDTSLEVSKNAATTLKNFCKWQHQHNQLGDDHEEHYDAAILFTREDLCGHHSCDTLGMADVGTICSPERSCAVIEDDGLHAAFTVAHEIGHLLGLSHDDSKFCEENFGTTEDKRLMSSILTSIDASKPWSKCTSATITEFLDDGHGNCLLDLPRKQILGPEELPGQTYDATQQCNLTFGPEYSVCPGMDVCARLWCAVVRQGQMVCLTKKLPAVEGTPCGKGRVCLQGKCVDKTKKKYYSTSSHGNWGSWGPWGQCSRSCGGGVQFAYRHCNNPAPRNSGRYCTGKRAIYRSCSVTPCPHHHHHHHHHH", "test": "KinExA, in solution; free 581 captured on human ADAMTS5 beads", "method": "as §2"}, "rat recombinant ADAMTS5": {"target": "T9, rat recombinant ADAMTS5 (rat, UniProt Q9R001 262-618 (mouse entry))", "T9 construct": "in house, HEK293, His tag in the entry", "T9 chain": "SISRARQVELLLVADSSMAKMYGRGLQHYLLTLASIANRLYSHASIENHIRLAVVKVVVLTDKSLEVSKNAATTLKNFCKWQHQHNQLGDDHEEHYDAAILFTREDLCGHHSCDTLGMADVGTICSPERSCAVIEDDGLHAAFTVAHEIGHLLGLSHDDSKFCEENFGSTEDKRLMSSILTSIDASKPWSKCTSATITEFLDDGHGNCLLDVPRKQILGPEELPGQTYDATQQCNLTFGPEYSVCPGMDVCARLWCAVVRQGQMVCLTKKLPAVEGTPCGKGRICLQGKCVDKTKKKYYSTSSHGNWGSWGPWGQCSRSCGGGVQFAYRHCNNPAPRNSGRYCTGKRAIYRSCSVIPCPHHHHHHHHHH", "test": "KinExA, in solution; free 581 captured on human ADAMTS5 beads", "method": "as §2"}, "[8]": {"target": "T10, human ADAMTS1 (R&D Systems cat #2197-AD) (human, UniProt Q9UHI8 253-724, limits assumed)", "T10 sequence (looked up)": "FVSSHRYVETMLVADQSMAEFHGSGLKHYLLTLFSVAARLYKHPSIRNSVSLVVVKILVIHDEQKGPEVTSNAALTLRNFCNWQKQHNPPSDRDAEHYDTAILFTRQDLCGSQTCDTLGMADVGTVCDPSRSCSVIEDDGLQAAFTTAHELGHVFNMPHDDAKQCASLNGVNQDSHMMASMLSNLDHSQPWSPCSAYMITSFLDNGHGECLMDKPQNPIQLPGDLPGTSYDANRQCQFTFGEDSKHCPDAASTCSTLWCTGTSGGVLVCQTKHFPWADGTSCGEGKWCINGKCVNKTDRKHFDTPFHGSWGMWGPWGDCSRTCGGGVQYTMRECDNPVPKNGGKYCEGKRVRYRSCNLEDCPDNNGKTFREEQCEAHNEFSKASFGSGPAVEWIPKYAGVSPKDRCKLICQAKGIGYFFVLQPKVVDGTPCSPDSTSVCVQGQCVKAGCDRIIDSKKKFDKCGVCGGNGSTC", "test": "binding ELISA, hADAMTS-1 18.5nM coated, HRP conjugated anti-Nanobody tool", "method": "(§3) Binding to human ADAMTS1 was tested in a binding ELISA (see Error! Reference source not found. A)."}, "[9]": {"target": "T1, recombinant human ADAMTS5 (R&D Systems …)", "test": "binding ELISA, hADAMTS-5 18.5nM coated, HRP conjugated anti-Nanobody tool", "method": "as §3"}, "[10]": {"target": "T11, human ADAMTS4 (R&D Systems cat #4307-AD) (human, UniProt O75173 213-685, limits assumed)", "T11 sequence (looked up)": "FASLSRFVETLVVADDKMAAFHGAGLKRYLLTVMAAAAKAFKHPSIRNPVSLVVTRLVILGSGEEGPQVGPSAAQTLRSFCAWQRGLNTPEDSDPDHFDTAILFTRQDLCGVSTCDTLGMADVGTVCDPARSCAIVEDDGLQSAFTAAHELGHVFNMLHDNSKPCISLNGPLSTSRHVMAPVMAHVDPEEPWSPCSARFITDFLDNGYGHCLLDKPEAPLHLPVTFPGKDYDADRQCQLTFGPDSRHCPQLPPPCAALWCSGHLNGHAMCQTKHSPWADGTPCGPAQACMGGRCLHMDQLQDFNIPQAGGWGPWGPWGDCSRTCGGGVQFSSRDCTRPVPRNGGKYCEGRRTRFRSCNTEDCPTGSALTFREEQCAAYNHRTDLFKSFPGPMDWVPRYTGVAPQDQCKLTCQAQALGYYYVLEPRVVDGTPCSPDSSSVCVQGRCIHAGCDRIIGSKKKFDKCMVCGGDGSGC", "test": "binding ELISA, human ADAMTS4 coated at 1 ug/mL, biotinylated anti-Nanobody tool and streptavidin-HRP [Human ADAMTS-4]", "method": "(§4) Binding to human ADAMTS4 and ADAMTS15 was tested in a binding ELISA (see FIG. 4B). In brief, 1 μg/mL of human ADAMTS4 (R&D Systems, Minneapolis, US; cat #4307-AD) or human ADAMTS15 (R&D Systems, Minneapolis, US; cat #5149-AD) was coated overnight at 1 μg/mL onto 96-well Maxisorp ELISA plates (Nunc, Wiesbaden, Germany). […] For both streptavidin-HRP was used as a secondary detection tool (Thermo Scientific Pierce; cat #21126). Plates were then visualized by adding sTMB) (SDT, Brussels, Belgium). All dilutions and detection tools were prepared in assay diluent (=PBS+10% Superblock+0.05% Tween20). The colouring reaction was stopped after 2.5 minutes by adding 1M HCl. Optical density was measured at 450 nm with 620 nm as reference wavelength."}, "[11]": {"target": "T12, human ADAMTS15 (R&D Systems cat #5149-AD) (human, UniProt Q8TE58 213-700, limits assumed)", "T12 sequence (looked up)": "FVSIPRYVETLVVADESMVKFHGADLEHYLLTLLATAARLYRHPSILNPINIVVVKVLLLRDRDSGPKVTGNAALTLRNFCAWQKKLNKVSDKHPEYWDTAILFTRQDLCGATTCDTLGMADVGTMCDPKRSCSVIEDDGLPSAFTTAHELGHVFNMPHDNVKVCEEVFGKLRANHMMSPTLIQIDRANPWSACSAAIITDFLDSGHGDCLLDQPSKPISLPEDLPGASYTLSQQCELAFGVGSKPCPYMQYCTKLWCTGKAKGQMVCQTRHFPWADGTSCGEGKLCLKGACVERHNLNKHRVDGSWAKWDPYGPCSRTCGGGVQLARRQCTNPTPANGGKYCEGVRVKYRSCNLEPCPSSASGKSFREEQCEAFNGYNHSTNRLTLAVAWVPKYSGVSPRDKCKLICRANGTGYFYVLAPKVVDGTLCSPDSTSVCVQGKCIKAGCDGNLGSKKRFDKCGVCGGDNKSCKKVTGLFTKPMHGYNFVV", "test": "binding ELISA, human ADAMTS15 coated at 1 ug/mL, biotinylated anti-Nanobody tool and streptavidin-HRP [Human ADAMTS-15]", "method": "as §4"}}, "data": [{"binder": "Nanobody construct 581 (2F3^SO-35GS linker-Alb11) (bispecific antibody, also called 577; C011400581) DVQLVESGGGVVQPGGSLRLSCAASGRTVSSYAMGWFRQAPGKEREFVAGISRSAERTYYVDSLKGRFTISRDNSKNTVYLQMNSLRPEDTALYYCAADLDPNRIFSREEYAYWGQGTLVTVSSGGGGSGGGGSGGGGSGGGGSGGGGSGGGGSGGGGS[gap - about 120 residues]", "values": [{"measurement": "AlphaLISA IC50", "setting": "[1]", "result": 188, "unit": "pM"}, {"measurement": "AlphaLISA IC50, Exp 4", "setting": "[2]", "result": 350, "unit": "pM"}, {"measurement": "Kd", "setting": "[3]", "result": 4.84, "unit": "pM"}, {"measurement": "Kd", "setting": "human serum albumin", "result": 48, "unit": "nM"}, {"measurement": "Kd", "setting": "[4]", "result": 51, "unit": "nM"}, {"measurement": "Kd", "setting": "guinea pig serum albumin", "result": 420, "unit": "nM"}, {"measurement": "Kd", "setting": "mouse serum albumin", "result": 790, "unit": "nM"}, {"measurement": "koff", "setting": "rat serum albumin", "result": "> 0.5", "unit": "s⁻¹"}, {"measurement": "Kd", "setting": "[5]", "result": 3.65, "unit": "pM"}, {"measurement": "Kd", "setting": "[6]", "result": 2.22, "unit": "pM"}, {"measurement": "Kd", "setting": "[7]", "result": 2.81, "unit": "pM"}, {"measurement": "Kd", "setting": "rat recombinant ADAMTS5", "result": 2.77, "unit": "pM"}, {"measurement": "binding result", "setting": "[8]", "result": "no binding (tested: 10^-6 M)"}, {"measurement": "EC50 (read off the curve)", "setting": "[9]", "result": "~90", "unit": "pM"}, {"measurement": "binding result", "setting": "[10]", "result": "no binding (tested: 1000 nM)"}, {"measurement": "binding result", "setting": "[11]", "result": "no binding (tested: 1000 nM)"}]}]}
